Source: the BET-seq Pho4 binding data (Le et al. 2018)
The other results are listed elsewhere or left out. Values were computed here from the reads of four pooled replicates and scatter widely.

Biological target: T1, Pho4 (S. cerevisiae) (UniProt P07270)
T1 sequence: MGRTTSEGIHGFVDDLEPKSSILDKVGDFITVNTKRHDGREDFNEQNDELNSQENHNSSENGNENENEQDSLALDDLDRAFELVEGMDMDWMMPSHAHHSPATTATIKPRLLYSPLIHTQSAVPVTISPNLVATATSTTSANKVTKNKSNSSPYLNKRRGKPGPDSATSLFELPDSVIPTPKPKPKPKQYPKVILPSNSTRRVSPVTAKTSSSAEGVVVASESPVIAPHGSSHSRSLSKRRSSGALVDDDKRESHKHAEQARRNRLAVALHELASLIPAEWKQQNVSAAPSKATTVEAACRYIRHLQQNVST
Assay: relative binding free energy (BET-seq); higher = weaker binding
Conditions: reference: library average

Sequence | relative binding free energy [kcal/mol]
ACGTTCACGTGTGCGG | 0.19
TACTACACGTGTTTTT | 0
TTTAGCACGTGTCTTG | -0.07
GTGTACACGTGGTATA | -0.01
GTTTGCACGTGAGAAG | 0.2
TTTACCACGTGGGTAT | -0.04
TTGATCACGTGTGGAT | 0.2
GTGTGCACGTGGGACT | -0.08
AGTGTCACGTGTATTT | -0.05
TTAGGCACGTGGTCAG | -0.28
AGTTACACGTGTCGGA | 0.21
GGCTGCACGTGGGAAT | 0.06
TATGTCACGTGCGATT | 0.01
TTGAACACGTGGGGGT | -0.11
AGGTTCACGTGGGATC | 0.33
GGAGGCACGTGGGAGG | -0.17
TTTTGCACGTGGTGAT | -0.01
TTAATCACGTGGTCGT | -0.02
GTGAACACGTGTATGT | 0.14
GGTAGCACGTGTTTTC | -0.03
CAAGGCACGTGTTTTG | -0.08
TACGGCACGTGGGCTT | -0.2
GAGATCACGTGGTATG | -0.01

Sequence | relative binding free energy [kcal/mol]
GTCGACACGTGATGCG | 0.29
CGTGACACGTGTGAGG | 0.06
CGGCTCACGTGGTGGG | 0.02
TGAGACACGTGTGGGG | 0.03
TTGAGCACGTGGCCGT | -0.04
CGAGGCACGTGAGGGC | 0.11
TTTCTCACGTGAGGTG | 0.48
CAGATCACGTGGGGCG | 0.06
TGATACACGTGCTGTG | -0.09
AAGGTCACGTGATATG | 0.23
ATGATCACGTGGACGT | 0.15
ATTGTCACGTGGGTGC | 0
CTGAGCACGTGTTGTG | -0.05
AAATCCACGTGGGTGT | 0.01
GGCAGCACGTGAGTGT | 0.32
ATGCGCACGTGGGTAG | -0.25
ATGAACACGTGGAGTG | -0.1
TTAATCACGTGTTTCT | 0.08
AAGGTCACGTGCATTT | 0.23
TATTGCACGTGGGTGA | -0.17
AAGCTCACGTGGGGGC | 0.03
CATGACACGTGTGTGG | 0.18
AGGGACACGTGGTTTG | 0.05

Sequence | relative binding free energy [kcal/mol]
TGCTGCACGTGTGGTG | 0.08
TGGTACACGTGGTCTA | -0.17
GCGTGCACGTGGTGTT | -0.08
TTTCGCACGTGGGATA | -0.07
TTTTTCACGTGTGCCA | 0.26
TATGTCACGTGGAAGT | 0.11
TTGGGCACGTGGAGAC | 0.1
AGACTCACGTGGGGGC | 0.06
GATTCCACGTGGGGGT | -0.09
GGGTACACGTGTAGCG | 0.22
GGTGGCACGTGAGTGC | 0.26
GTCGGCACGTGGGCCG | -0.14
TAAGACACGTGACGGG | 0.13
TGCTACACGTGTAGGT | 0.08
TTATTCACGTGGCGGG | 0.23
GGTGTCACGTGTAGCA | -0.02
TTGTTCACGTGACATT | 0.35
TAGTTCACGTGGTTCC | 0.41
TGTGACACGTGATTAA | 0.11
GTTGTCACGTGGGTTC | 0.08
CGGTACACGTGTTTGT | -0.03
GGTGTCACGTGCGTTC | 0.08
CGGTTCACGTGGACGT | 0.28

Sequence | relative binding free energy [kcal/mol]
GTGAGCACGTGTGGGC | 0.01
TGATCCACGTGGTGAA | 0.23
CAAAGCACGTGGTGTT | -0.21
CAGCTCACGTGGTTGT | 0.36
TAGGGCACGTGAGATG | 0.16
CTCGTCACGTGTGGCT | 0.18
TTATTCACGTGCTTGA | 0.05
CTGGACACGTGGTGTT | -0.02
GTGGGCACGTGTGCTG | -0.11
ATATTCACGTGTCTGT | 0.2
TGAGCCACGTGTGCGG | -0.15
TTAATCACGTGGGGCT | 0.02
AGTTCCACGTGTGTTG | 0.04
GTGGACACGTGTTTTT | 0.14
AATAGCACGTGGCAGG | -0.21
TAGGGCACGTGGTTCT | -0.11
AGGTTCACGTGTGTCC | 0.3
TAGGTCACGTGCGGAA | 0
CTGGACACGTGTTGTG | -0.02
GCGTTCACGTGAGTTT | 0.21
TGATTCACGTGTTCAT | 0.22
TGAAGCACGTGTTGGC | -0.05
TCTAGCACGTGGGTAG | -0.19

Sequence | relative binding free energy [kcal/mol]
CGTGTCACGTGATGGC | 0.27
CGATTCACGTGTTGAA | 0.36
GTACGCACGTGTGGTA | 0
AGTCGCACGTGTGTAG | -0.16
ATTGGCACGTGGAATC | 0.01
ATGGCCACGTGCGGGA | -0.14
TGTTGCACGTGGAGGT | 0.04
ATGGACACGTGGTGCT | -0.03
TAGCGCACGTGAGATG | 0.18
CTCATCACGTGGGTAT | 0.07
AGAGTCACGTGTTTGT | 0.12
CATCGCACGTGGGGTT | -0.27
CGCAACACGTGAGGGG | 0.27
TTGTACACGTGGGGCA | -0.27
TGTACCACGTGTGTGA | -0.08
ATGGTCACGTGGTGGA | 0.03
TTCTTCACGTGAGAGT | 0.34
AAATTCACGTGGTAGG | 0.18
GCGGTCACGTGGGTCT | 0.06
TGTTACACGTGAGCGG | 0.17
GTCAGCACGTGAGTTG | 0.19
TATCGCACGTGGTATG | -0.25
TACATCACGTGGTTGT | 0.06
